# From the supplement of paper PMC8728848
# This is one part of the list.
# B1: Clone730PsrP (Streptococcus pneumoniae) (protein)
# chain: MDHHHHHHHHHHASENLYFQGAMVVGSQTAAATEATAKKVEEDRKKPASDYVASVTNVNLQSYAKRRKRSVDSIEQLLASIKNAAVFSGNTIVNGAPAINASLNIAKSETKVYTGEGVDSVYRVPIYYKLKVTNDGSKLTFTYTVTYVNPKTNDLGNISSMRPGYSIYNSGTSTQTMLTLGSDLGKPSGVKNYITDKNGRQVLSYNTSTMTTQGSGYTWGNGAQMNGFFAKKGYGLTSSWTVPITGTDTSFTFTPYAARTDRIGINYFNGGGKVVESSTT
# Key:
# Assay in all cases: glycan array binding signal (z-score within array); higher = stronger binding
# Settings in all cases: glycan notation: IUPAC condensed, linker removed
# [1] = target: Gal(b1-4)GlcNAc(b1-6)GalNAc
# In short: (§1)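 Glycan array data were curated from 3228 arrays in the Consortium for Functional Glycomics database and kept only where the protein sequence was available. Glycan names were converted to IUPAC-condensed notation, and columns mapping to the same glycan were averaged. The binding signal is a within-array Z-score, averaged across arrays of the same protein sequence at different concentrations or buffers and across linkers. Negative Z-scores can be read as non-binding.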
# [2] = target: Gal(b1-4)GlcNAc(b1-6)[Gal(b1-3)]GalNAc
# In short: as §1
# [3] = target: Gal(b1-4)GlcNAc(b1-6)[Gal(b1-4)GlcNAc(b1-3)]GalNAc
# In short: as §1
# Gal(b1-4)GlcNAc6P = target: Gal(b1-4)GlcNAc6P
# In short: as §1
# Gal(b1-6)Gal = target: Gal(b1-6)Gal
# In short: as §1
# Gal3S(b1-3)GalNAc = target: Gal3S(b1-3)GalNAc
# In short: as §1
# Gal3S(b1-3)GlcNAc = target: Gal3S(b1-3)GlcNAc
# In short: as §1
# [4] = target: Gal3S(b1-3)[Fuc(a1-4)]GlcNAc
# In short: as §1
# Gal3S(b1-4)Glc = target: Gal3S(b1-4)Glc
# In short: as §1
# Gal3S(b1-4)Glc6S = target: Gal3S(b1-4)Glc6S
# In short: as §1
# Gal3S(b1-4)GlcNAc = target: Gal3S(b1-4)GlcNAc
# In short: as §1
# [5] = target: Gal3S(b1-4)[Fuc(a1-3)]Glc6S
# In short: as §1
# [6] = target: Gal3S(b1-4)[Fuc(a1-3)]GlcNAc
# In short: as §1
# [7] = target: Gal3S(b1-4)[Fuc(a1-3)]GlcNAc6S
# In short: as §1
# Gal3S4S(b1-4)GlcNAc = target: Gal3S4S(b1-4)GlcNAc
# In short: as §1
# Gal3S6S(b1-4)GlcNAc = target: Gal3S6S(b1-4)GlcNAc
# In short: as §1
# Gal3S6S(b1-4)GlcNAc6S = target: Gal3S6S(b1-4)GlcNAc6S
# In short: as §1
# Gal4S(b1-4)GlcNAc = target: Gal4S(b1-4)GlcNAc
# In short: as §1
# Gal4S6S(b1-4)GlcNAc = target: Gal4S6S(b1-4)GlcNAc
# In short: as §1
# Gal6P(b1-4)GlcNAc = target: Gal6P(b1-4)GlcNAc
# In short: as §1
# Gal6S(b1-3)GlcNAc = target: Gal6S(b1-3)GlcNAc
# In short: as §1
# Gal6S(b1-3)GlcNAc6S = target: Gal6S(b1-3)GlcNAc6S
# In short: as §1
# Gal6S(b1-4)Glc = target: Gal6S(b1-4)Glc
# In short: as §1
binder,measurement,setting,value
B1,glycan array binding signal (z-score),[1],0.015
same,glycan array binding signal (z-score),[2],0.074
same,glycan array binding signal (z-score),[3],-0.393
same,glycan array binding signal (z-score),Gal(b1-4)GlcNAc6P,0.795
same,glycan array binding signal (z-score),Gal(b1-6)Gal,-0.252
same,glycan array binding signal (z-score),Gal3S(b1-3)GalNAc,1.07
same,glycan array binding signal (z-score),Gal3S(b1-3)GlcNAc,0.574
same,glycan array binding signal (z-score),[4],0.322
same,glycan array binding signal (z-score),Gal3S(b1-4)Glc,-0.041
same,glycan array binding signal (z-score),Gal3S(b1-4)Glc6S,0.397
same,glycan array binding signal (z-score),Gal3S(b1-4)GlcNAc,0.189
same,glycan array binding signal (z-score),[5],-0.126
same,glycan array binding signal (z-score),[6],0.82
same,glycan array binding signal (z-score),[7],1.7
same,glycan array binding signal (z-score),Gal3S4S(b1-4)GlcNAc,1.08
same,glycan array binding signal (z-score),Gal3S6S(b1-4)GlcNAc,0.158
same,glycan array binding signal (z-score),Gal3S6S(b1-4)GlcNAc6S,-0.38
same,glycan array binding signal (z-score),Gal4S(b1-4)GlcNAc,-0.521
same,glycan array binding signal (z-score),Gal4S6S(b1-4)GlcNAc,-0.324
same,glycan array binding signal (z-score),Gal6P(b1-4)GlcNAc,-0.387
same,glycan array binding signal (z-score),Gal6S(b1-3)GlcNAc,-0.528
same,glycan array binding signal (z-score),Gal6S(b1-3)GlcNAc6S,-0.368
same,glycan array binding signal (z-score),Gal6S(b1-4)Glc,-0.331
